# A collection of fitness landscapes (doi:10.1126/science.1257360)
# The list shows a part of the results.
# B1: PhoQ; a variant is named by its letters at X, in order, P23837 (parent)
# chain: MKKLLRLFFPLSLRVRFLLATAAVVLVLSLAYGMVALIGYSVSFDKTTFRLLRGESNLFYTLAKWENNKLHVELPENIDKQSPTMTLIYDENGQLLWAQRDVPWLMKMIQPDWLKSNGFHEIEADVNDTSLLLSGDHSIQQQLQEVREDDDDAEMTHSVAVNVYPATSRMPKLTIVVVDTIPVELKSSYMVWSWFIYVLSANLLLVIPLLWVAAWWSLRPIEALAKEVRELEEHNRELLNPATTRELTSLVRNLNRLLKSERERYDKYRTTLTDLTHSLKTPLXXLQXXLRSLRSEKMSVSDAEPVMLEQISRISQQIGYYLHRASMRGGTLLSRELHPVAPLLDNLTSALNKVYQRKGVNISLDISPEISFVGEQNDFVEVMGNVLDNACKYCLEFVEISARQTDEHLYIVVEDDGPGIPLSKREVIFDRGQRVDTLRPGQGVGLAVAREITEQYEGKIVAGESMLGGARMEVIFGRQHSAPKDE
# Variants of: B1
# Test: enrichment ratio after two sorts for PhoP signalling (ratio (wild type AVST 3.29)); higher = more functional
# Details: with PhoP (E. coli)
row,Variant,enrichment ratio
1,YYDC,≤ 0.25
2,KYFF,≤ 0.25
3,EMGL,≤ 0.25
4,DDWH,≤ 0.25
5,KRLA,≤ 0.25
6,QPKD,≤ 0.25
7,GCGD,≤ 0.25
8,PMQC,≤ 0.25
9,HHNP,≤ 0.25
10,SKGI,≤ 0.25
11,EMKF,≤ 0.25
12,GMWG,≤ 0.25
13,TSVC,7.92
14,QQLN,≤ 0.25
15,QLKM,≤ 0.25
16,DYQF,≤ 0.25
17,QIPT,≤ 0.25
18,PKPL,≤ 0.25
19,IMHY,≤ 0.25
20,YQDK,≤ 0.25
21,PFII,≤ 0.25
22,LIGS,≤ 0.25
23,RQTR,≤ 0.25
24,PQMC,≤ 0.25
25,YGDH,≤ 0.25

row,Variant,enrichment ratio
1,AETL,15.1
2,QDTP,≤ 0.25
3,MHMI,≤ 0.25
4,FKSH,≤ 0.25
5,HRTR,≤ 0.25
6,GMWM,≤ 0.25
7,DNIV,≤ 0.25
8,EMPP,≤ 0.25
9,NAKG,≤ 0.25
10,PTVC,≤ 0.25
11,IIFI,≤ 0.25
12,IIMF,≤ 0.25
13,HILI,≤ 0.25
14,QSLF,≤ 0.25
15,QHLQ,≤ 0.25
16,DPVM,≤ 0.25
17,AVVA,0.904
18,KYGL,≤ 0.25
19,SFLD,≤ 0.25
20,ARPG,≤ 0.25
21,STPK,≤ 0.25
22,EQQT,≤ 0.25
23,SAQF,0.953
24,LFDW,≤ 0.25
25,QLNG,≤ 0.25

row,Variant,enrichment ratio
1,ICYQ,≤ 0.25
2,HKQT,≤ 0.25
3,SGQK,≤ 0.25
4,ACPL,5.04
5,WLNS,≤ 0.25
6,SEYI,4.33
7,NNMQ,≤ 0.25
8,NDPH,≤ 0.25
9,FHIR,≤ 0.25
10,KPDR,≤ 0.25
11,MGSC,9.47
12,RQGS,≤ 0.25
13,NRKT,≤ 0.25
14,DIWK,≤ 0.25
15,HHDK,≤ 0.25
16,NMGN,≤ 0.25
17,AMCG,9.64
18,FYRF,≤ 0.25
19,IPLA,≤ 0.25
20,HGGH,≤ 0.25
21,ITFY,≤ 0.25
22,SEMA,13.6
23,KNRP,≤ 0.25
24,QDYC,≤ 0.25
25,EHNS,≤ 0.25

row,Variant,enrichment ratio
1,HVFN,≤ 0.25
2,LPMA,≤ 0.25
3,SYDI,≤ 0.25
4,VRAI,≤ 0.25
5,FIIW,≤ 0.25
6,SDPR,≤ 0.25
7,KQMK,≤ 0.25
8,WEDG,≤ 0.25
9,REKP,≤ 0.25
10,KFQI,≤ 0.25
11,WRSA,≤ 0.25
12,CSWY,≤ 0.25
13,NCVP,≤ 0.25
14,AEWK,≤ 0.25
15,PDAM,≤ 0.25
16,FKCC,≤ 0.25
17,TIAH,9.22
18,KVFA,≤ 0.25
19,IGFC,≤ 0.25
20,FIIT,≤ 0.25
21,LWEP,≤ 0.25
22,GKDA,≤ 0.25
23,TVTM,16.6
